Measured values published in ChEMBL document CHEMBL4888484, “Replenishing the malaria drug discovery pipeline: Screening and hit evaluation of the MMV Hit Generation Library 1 (HGL1) against asexual blood stage Plasmodium falciparum ,using a nano luciferase reporter read-out” (2022).
The campaign covered roughly 150,000 compounds. About 540 (0.36%) showed an effect of 50% or more. The list shows a part of the results.

These compounds were tested on Plasmodium falciparum (assay: Primary screen in NF54 nanoGlo assay, in single point, at 2uM, 72h; a lower Z score goes with more inhibition). Settings: timepoint 72 hour.
Type: functional, Erythrocyte

| Structure (SMILES) | % Inhibition | Z score |
| --- | --- | --- |
| CCc1cc(C(=O)N2C[C@H]3CC[C@@H](C2)N(Cc2c(C)noc2C)C3=O)no1 | -17% | 2.35 |
| CCOc1cccc(-n2nc(C)[nH]c2=O)n1 | -18% | 2.12 |
| CCC(CC)NC(=O)c1cc(Cl)ccc1Cl | -17% | 3.23 |
| COc1ccccc1OCC(=O)Nc1nccnc1C(F)(F)F | -17% | 2 |
| CCOCC(=O)N1CCC[C@](C)(c2nc(C3CC3)no2)C1 | -6% | 0.73 |
| Cc1ncsc1C(=O)N1CCCN(C[C@H](O)c2ccccc2)CC1 | -10% | 0.92 |
| O=C(NCc1ccccc1)N1CCC(F)(C(=O)N2CCOCC2)CC1 | -12% | 1.54 |
| CCCCCc1nnc(NC(=O)Cc2cc(C)no2)s1 | -10% | 1.86 |
| C[C@]1(CN2C(=O)c3ccccc3C2=O)Nc2ccccc2C(=O)N1c1ccccc1 | 1% | -0.22 |
| Cc1ccc(-n2nc(C(=O)NCCN3CCOCC3)c(=O)n(Cc3ccccc3Cl)c2=O)cc1Cl | -13% | 1.65 |
| O=C(NCCCN1CCCC1=O)[C@H]1CCCN(c2ncnc3c2nc2n3CCCCC2)C1 | -13% | 2.08 |
| COC[C@H]1CCCN1C(=O)c1c(C)n[nH]c1C1CC1 | -16% | 2.12 |
| COc1ccc(C2=NC3(CCCCC3)N(C(=O)c3ccccc3)C2=O)cc1 | -10% | 1 |
| COc1cccc(-c2cc3c(c(OC)c2)OCCN(S(=O)(=O)c2ccccc2C(F)(F)F)C3)n1 | 6% | -0.8 |
| N#Cc1ccc(C(=O)N[C@@H](Cc2ccccc2)C(N)=O)[nH]1 | -11% | 1.42 |
| COC(=O)C1C2CCC(C2)C1NC(=O)Cc1csc(C(C)C)n1 (configuration not stated) | -10% | 0.95 |
| O=C(Nc1ccc(F)cc1)OC1CCCC(NC(=O)c2ccc(Br)o2)C1 (configuration not stated) | -5% | 0.93 |
| COCc1cc(CNCC(=O)NC2CCCCCCC2)n[nH]1 | -9% | 1.48 |
| CN1C(=O)CCC(C(=O)NCC(=O)O)C1c1ccc(C(F)(F)F)cc1 (configuration not stated) | -17% | 2.17 |
| Cc1ccc(CNC(=O)Cn2cc(-c3noc(-c4ccncc4)n3)nc2C)cc1C | -2% | 0.24 |
| CCn1nc(-c2csc(C)n2)nc1-c1ccc2[nH]c(C)nc2c1 | -6% | 0.76 |

| Structure (SMILES) | % Inhibition | Z score |
| --- | --- | --- |
| CCc1nc(COC(=O)[C@@H]2CCCN2C(C)=O)cs1 | -2% | 0.26 |
| O=C1NC2(CCN(S(=O)(=O)c3ccc(F)cc3F)CC2)Nc2ccccc21 | -1% | 0.12 |
| COc1ccc2cc3n(c2c1)C[C@](C(=O)NC1CCCCCC1)(c1ccccc1)N(Cc1cccc(Br)c1)C3=O | 37% | -0.96 |
| COc1ccc(-c2ccc(=O)n(CC(=O)N3CCN(Cc4ccccc4)CC3)n2)cc1OC | -10% | 1.76 |
| Cc1nc(C(C)C)sc1C(=O)N(C)Cc1cc(C2CC2)[nH]n1 | -10% | 1.28 |
| Cc1cnc([C@@H](C)CNC(=O)c2nc(-c3cnccn3)no2)s1 | -6% | 0.88 |
| O[C@H]1C[C@@H](C(Nc2ncnc3[nH]ccc23)c2ccc3c(c2)CCO3)C1 (some centres not stated) | -5% | 0.76 |
| CCCc1cc(C(=O)NC[C@H]2CCCN(S(C)(=O)=O)C2)ccn1 | -15% | 1.65 |
| CO[C@H]1CCCN(C(=O)c2cccc(-c3ccc(-c4ncc(C)cn4)cc3)c2)C1 | -9% | 1.46 |
| Cc1ccc(CN2CCC[C@H]2c2ncc(C)n2Cc2cccnc2)o1 | 10% | -1.29 |
| Cc1ccc(CCC(=O)N2CC[C@H](N3CCN(C)CC3)[C@H](CCC(=O)O)C2)cc1 | -6% | 0.76 |
| CCOc1ccc([C@@H](Nc2nc(C)cc(C)n2)c2cc(C)sc2NC(=O)c2ccccc2)cc1 | 44% | -5.92 |
| O=C1C[C@@H](c2ccccc2)N(Cc2ccncc2)CCCN(C(=O)CC2CCCC2)CCN1 | 0% | -0.06 |
| Cc1nnnn1CCC(=O)N1CCC[C@H](c2nc3ccccc3s2)C1 | -15% | 2.29 |
| CCc1cc(NC(=O)N2CC(C)OC(c3ccsc3)C2)n(C)n1 (configuration not stated) | -2% | 0.36 |
| COc1cc(C(=O)N[C@H]2CCCO[C@@H]2c2ccc(Cl)cc2)ncn1 | 3% | -0.41 |
| C#CCNC(=O)CCOc1ccccc1Cl | 8% | -1.37 |
| Cc1cc(C(=O)N2CCc3c(ncn3C)C23CCOCC3)co1 | -6% | 1.05 |
| Cc1nnnn1CCOc1ccccc1Br | -9% | 1.2 |
| CC(NC(CC1CCOC1)c1ccccc1)c1ncc(C(C)(C)C)o1 (configuration not stated) | -8% | 1.17 |
| CC(C)c1ocnc1C(=O)Nc1cccc(S(=O)(=O)NC2CC2)c1 | 3% | -0.42 |

| Structure (SMILES) | % Inhibition | Z score |
| --- | --- | --- |
| COc1cc(-c2ccc(C(=O)N3CCC[C@H](O)C3)cc2)nc(OC)n1 | 2% | -0.43 |
| COC(=O)[C@H](CS(=O)(=O)N(C)OC)NC(=O)OCc1ccccc1 | -6% | 0.75 |
| CC(C)c1nnc(CNC(=O)[C@H]2CCO[C@@H]2c2ccnn2C(C)C)[nH]1 | -6% | 0.81 |
| O=C(CN1C(=O)COc2ccc(Cl)cc21)OC1CCCCC1 | -9% | 1.15 |
| O=C(Nc1cccc(Cl)c1)c1ncccn1 | -5% | 0.61 |
| O=C(c1ccc(C(F)F)c(F)c1)N1CC2(C1)CS(=O)(=O)C2 | -7% | 0.96 |
| CCOC(=O)N1CCN(C(=O)[C@H]2CC[C@H](Cn3c(=O)[nH]c4ccccc4c3=O)CC2)CC1 | 4% | -0.47 |
| COc1cccc(CNCc2ccccc2C)c1OC[C@@H](O)CN1CCOCC1 | 0% | 0.05 |
| COc1ccc(CNC(=O)c2ccc(-n3nc(N4CCCC4)ccc3=O)cc2)cc1 | -16% | 1.94 |
| O[C@@H](CNCCCn1ccnc1)COc1ccc(Cl)cc1Cl | 26% | -2.66 |
| CCN(CC)C(=O)c1c(CC2CCCC2)n(Cc2cccnc2)c(C)cc1=O | 12% | -2.15 |
| O=S(=O)(Nc1nc(-c2cc(F)ccc2F)cs1)c1cccs1 | -10% | 1.26 |
| O[C@@H](CCNCc1ccccc1)c1ccccc1 | 33% | -3.84 |
| NC(=O)C(c1ccccc1)N1C[C@@H](N)[C@H](c2ccccc2)C1 (some centres not stated) | -3% | 0.48 |
| CC[C@@H](NC(=O)N1CC[C@@H](O)C1)c1ccccc1 | -14% | 2.71 |
| CCC(CC)C(=O)N1C[C@@H]2CN(C3CCCC3)CC[C@]2(CO)C1 | -9% | 1.3 |
| COc1ccc(-c2noc([C@@H]3CCCN3)n2)cc1OC | -10% | 1.23 |
| O=C(CC1CCC2CC12)NS(=O)(=O)c1sccc1Cl (configuration not stated) | 4% | -0.8 |
| COC(=O)C(C)OC1C(NC(C)=O)C(OCc2ccccc2)OC2COC(C)(C)OC21 (configuration not stated) | -5% | 0.55 |
| CC[C@@H](CO)NC(=O)Nc1nccs1 | -10% | 1.37 |
| CNS(=O)(=O)c1ccc(N2CCN(C)C(=O)[C@@H]2C)nc1 | -10% | 1.81 |

| Structure (SMILES) | % Inhibition | Z score |
| --- | --- | --- |
| O=C1OC(c2ccc(N3C(=O)c4ccccc4C3=O)cc2)(c2ccc(N3C(=O)c4ccccc4C3=O)cc2)c2ccccc21 | -7% | 1.26 |
| COC[C@H]1CCN(C(=O)N2CCOc3cc(F)c(F)cc32)C1 | -8% | 1.23 |
| Cc1cccc(OCC(O)Cn2c(N3CCCC(C)C3)nc3c2c(=O)[nH]c(=O)n3C)c1 (configuration not stated) | 2% | -0.21 |
| C[C@]1(CO)[C@H]2Cc3sc(NC(=O)C4CCC4)nc3[C@@H](CC(=O)NCCN3CCOCC3)[C@]2(C)CC[C@H]1O | 32% | -3.56 |
| Cc1nc(N2CCC(O)C3CCCCC32)ccc1C#N (configuration not stated) | 4% | -0.74 |
| CCOC(=O)COc1cccnc1C#N | -9% | 1.36 |
| CS(=O)(=O)N1CCO[C@@H](CNC(=O)Nc2cccc(-c3ccco3)c2)C1 | -8% | 0.79 |
| CS(=O)(=O)N1CCN(C(=O)C[C@@H]2NC(=O)N(CCc3cccc(F)c3)C2=O)CC1 | -13% | 1.66 |
| O=C(C1CC1c1ccccc1)N1CCc2ccccc21 (configuration not stated) | 33% | -3.78 |
| Cc1ccc(CNC(=O)c2ccc3nn(CC(=O)Nc4ccc5c(c4)OCO5)c(=O)n3c2)cc1 | -16% | 1.44 |
| CC(C)CN1C[C@@H](c2ncc(-c3cccnc3)[nH]2)CC1=O | -5% | 0.66 |
| Cc1cccc(C(=O)N2CC[C@H](N(CCN3CCOCC3)S(C)(=O)=O)C2)n1 | 2% | -0.27 |
| Cc1cccc(OCc2nc(C(=O)NC3CC3)cs2)c1 | -1% | 0.27 |
| CCn1nc(C)c(Cn2ccnc2-c2ccc(-c3cc[nH]n3)o2)c1C | -11% | 2.22 |
| O[C@H](COCc1ccccc1)CN(Cc1ccccc1)Cc1ccc(F)cc1F | 1% | -0.18 |
| COc1cc2c(cc1OC)CN(C(=O)c1c(C)nn([C@H]3CCS(=O)(=O)C3)c1C)CC2 | 1% | -0.06 |
| Cc1cc(C(=O)Cn2cnc(C#N)n2)c(C)n1-c1ccc2c(c1)CCC2 | -6% | 0.93 |
| CS(=O)(=O)[C@H]1CCN(C(=O)c2csc(-c3cccs3)n2)C1 | -20% | 3.73 |
